Data on 66 compounds can be found in PubChem BioAssay AID485344 (National Center for Advancing Translational Sciences (NCATS), 2010).

Among all 340,000 compounds or so, about 6,900 (2%) were called active. Cut-off read from the data, not from the text of the source: active = inhibition above about 30%; inactive = below that, where a call was filed. This is a selection; strong and weak results do not stand in their true shares. Entries without a call were filed so in the source.

The assay deals with D(2) dopamine receptor (Homo sapiens) (UniProt P14416). In words: HTS Assay for Allosteric Antagonists of the Human D2 Dopamine Receptor: Primary Screen for Antagonists. Note: 0% is about no effect. Conditions: HEK293 TREx D2 cells, calcium flux, dopamine EC80; at 10 µM; stronger effect = higher value. Put shortly: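 Overnight-induced (tetracycline, 30 C) HEK293 T-REx cells carrying force-coupled D2 receive a no-wash calcium dye, then compound, then EC80 dopamine at 180 s; signals are read kinetically throughout.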
UniProt P14416, sequence (P14416 whole entry, looked up): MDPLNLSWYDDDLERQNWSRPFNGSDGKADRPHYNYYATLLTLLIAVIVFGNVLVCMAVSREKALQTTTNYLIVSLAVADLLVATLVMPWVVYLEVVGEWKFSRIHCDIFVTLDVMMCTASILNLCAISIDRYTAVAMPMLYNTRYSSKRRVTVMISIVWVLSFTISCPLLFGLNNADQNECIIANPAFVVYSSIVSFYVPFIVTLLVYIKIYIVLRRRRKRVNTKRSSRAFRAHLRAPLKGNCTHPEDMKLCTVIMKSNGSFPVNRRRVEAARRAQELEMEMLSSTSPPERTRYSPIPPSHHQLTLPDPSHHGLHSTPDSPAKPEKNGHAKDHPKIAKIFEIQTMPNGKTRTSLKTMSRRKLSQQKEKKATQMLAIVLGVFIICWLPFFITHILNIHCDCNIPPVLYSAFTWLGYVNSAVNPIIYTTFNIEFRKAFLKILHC
On the technique in general: Calcium flux is commonly read through the fluorescence of an indicator in the cells.
Turning to `CC1=CC(=O)C2=C(C)CC(O)C3C(C)C(=O)OC3C12` (stereo unspecified), the inhibition was active: 35.2%.

Consider `Cc1[nH]c2ccccc2c1CCCNC1CCCCC1`, for which the inhibition was active: 38.8%.

Consider `Cc1ccsc1C(=O)C1CCCN(Cc2c(C)nn(C(C)C)c2C)C1` (stereo unspecified), for which the inhibition was active: 57.5%.

Take `NCCCN1CCN(c2ccccc2)CC1`: the inhibition is active: 95.3%.

Regarding `Nc1c(C(=O)Nc2ccc(Cl)cc2)sc2nc3c(cc12)N1CCC3CC1`, the inhibition turned out to be 2.87%.

With `O=C(Nc1ccc2c(c1)OCO2)c1cccn(Cc2cccc(F)c2)c1=O`, the inhibition is -4.91%.

Regarding `Cn1cc(/C=C/c2nc3ccccc3c(=O)n2-c2ccccc2)c2ccccc21`, the inhibition is -5.39%.

Regarding `CCN1CCN(Cc2cc(Br)ccc2O)CC1`, the inhibition was active: 63.9%.

With `Nc1c(C(=O)Nc2ccc(Br)cc2F)sc2nc3c(cc12)N1CCC3CC1`, the inhibition was -26.2%.

Consider `O=[N+]([O-])c1cccc(O)c1`, for which the inhibition is active: 36.1%.

Turning to `Cc1c(Cl)cccc1NC(=O)CN1C(=O)C(C)N=C(c2ccccc2)c2ccccc21` (stereo unspecified), the inhibition was -1.82%.

In the case of `O=C(Nc1ccc(Cl)cc1C(=O)c1ccccc1)c1ccccc1Br`, the inhibition is 0.561%.

On to `COc1cc(C(c2c(O)c3ccccc3oc2=O)c2c(C)n(C)n(-c3ccccc3)c2=O)ccc1OCC(=O)O` (stereo unspecified), for which the inhibition is -12.2%.

Take `CCCC12CN3CC(C)(CN(C1)C3c1ccccn1)C2=O` (stereo unspecified): the inhibition was -4.54%.

On to `O=C(COC(=O)Cc1ccccc1)Nc1nnc(-c2ccccc2)o1`, for which the inhibition is active: 30.6%.

For the compound `Cc1ccc(-n2nc(C)c3c2NC(=O)CSC3c2ccc(O)cc2)cc1Cl` (stereo unspecified), the inhibition turned out to be 9.02%.

In the case of `Cc1ncc([N+](=O)[O-])n1CCOC(N)=O`, the inhibition was active: 38.2%.

As for `O=c1c2ccccc2nc(/C=C/c2ccccc2O)n1-c1ccc(Br)cc1`, the inhibition is 3.67%.

In the case of `Oc1cc2c(cc1O)[C@H]1c3ccccc3CN[C@@H]1CC2`, the inhibition was active: 92.2%.

For `CCCn1cc2c3c(cccc31)C1CC(C)CN(C)C1C2` (stereo unspecified), the inhibition is active: 86.6%.

For the compound `OC(CNC1CCCCC1)C(F)(F)F` (stereo unspecified), the inhibition was active: 39.7%.

With `CCOc1ccc(NC(=O)c2cccn(Cc3cccc(Cl)c3)c2=O)cc1`, the inhibition came out at 12.8%.

As to `COc1cc2c(cc1O)[C@@H]1Cc3ccc(OC)c(O)c3CN1CC2`, the inhibition is active: 75.2%.

For the compound `Fc1ccc2c(c1)nnn2C1CCN(Cc2ccccc2)CC1`, the inhibition is active: 81.8%.

As to `COc1ccc(NC(=O)CCc2nc(C3=CCN(Cc4cccc(Cl)c4)CC3)no2)cc1OC`, the inhibition was 3.75%.

`COc1ccc(CNC(=O)CCC(=O)N2C[C@H]3C[C@H](C2)c2cccc(=O)n2C3)cc1OC`: the inhibition was active: 36.4%.

As to `N#Cc1cccc(NC(=O)c2sc3nc4c(cc3c2N)N2CCC4CC2)c1`, the inhibition is 6.42%.

Consider `Cc1oc(-c2ccccc2Cl)nc1CN1C(=O)CN=C(c2ccccc2)c2cc(Cl)ccc21`, for which the inhibition was 4.92%.

For `N#Cc1cc2c(nc1SCC(=O)Nc1ccc(F)c(Cl)c1)C1CCN2CC1`, the inhibition is 4.26%.

Turning to `COC(=O)C1=C(c2cc3ccccc3s2)C[C@@H]2CC[C@H]1N2C`, the inhibition was active: 58.2%.

Turning to `CCCCCCN1CCN(c2ccccc2Cl)CC1`, the inhibition was active: 76.1%.

In the case of `COc1ccc(CCNCc2ccc3c(c2)n(C)c(=O)n3C)cc1`, the inhibition is -12.4%.

Take `O=C(Nc1ccc(Br)cc1C(=O)c1ccccc1Cl)c1ccccc1F`: the inhibition was -10.9%.

Regarding `O=C1CC(c2ccc(F)cc2)c2c(c3ccccc3oc2=O)O1` (stereo unspecified), the inhibition worked out at 10%.

For the compound `CCCCCCNC(=O)N[C@H](Cc1ccc(O)cc1)C(=O)NCCC[C@H]1CN2C(=NC[C@H]2CCC)N1CC1CCC1`, the inhibition is active: 33.7%.

Turning to `Cc1[nH]c2c(Cl)cccc2c1CCN`, the inhibition was active: 40.6%.

For the compound `C=CCn1c(O)c(C(CC)=NC2CC2)c(=O)[nH]c1=O`, the inhibition is active: 39.3%.

`O=[N+]([O-])c1ccc(NCc2ccccc2)c2nonc12`: the inhibition was active: 44%.

As for `O=c1[nH]c2ccccc2n1CCCN1CCC(n2c(=O)[nH]c3cc(Cl)ccc32)CC1`, the inhibition was active: 97.4%.

For the compound `Cc1ccc(Cn2cccc(C(=O)Nc3nnc(C)s3)c2=O)cc1`, the inhibition is 17%.

`CCOC(=O)c1ccc(NC(=O)c2cccn(Cc3ccc(C)cc3)c2=O)cc1`: the inhibition stood at 1.3%.

In the case of `Oc1ccc(C[C@H]2NCCc3cc(O)c(O)cc32)cc1O`, the inhibition was active: 84.8%.

For `NS(=O)(=O)OC(CCc1ccccc1)C(Cl)(Cl)Cl` (stereo unspecified), the inhibition was active: 38.5%.

With `CSc1ncc(C(=O)Nc2ccc(Cl)cc2C(=O)c2ccccc2)c(C)n1`, the inhibition was -7.86%.

As to `CCOc1ccccc1CN(CCc1ccc2c(c1)OCO2)Cc1ccc(CC)cc1`, the inhibition was found to be 1.43%.

For the compound `Cc1ccccc1-n1c(/C=C/c2ccc(O)cc2)nc2ccccc2c1=O`, the inhibition turned out to be 21.5%.

Regarding `CC(C)(C)c1ccc(OCC(=O)Nc2ccc(Cl)cc2C(=O)c2ccccc2)cc1`, the inhibition is -3.14%.

Consider `COc1ccc(Br)cc1CN1CCN(CCO)CC1`, for which the inhibition is active: 54.7%.

Consider `COc1ccc(NC(C)=O)cc1NC(=O)c1cccn(Cc2ccccc2)c1=O`, for which the inhibition is -2.53%.

On to `Cc1cccc(NC2=NCCCS2)c1C`, for which the inhibition was active: 38.4%.

Take `Cc1nnc(NC(=O)c2cccn(Cc3cccc([N+](=O)[O-])c3)c2=O)s1`: the inhibition stood at 28.2%.

Turning to `COc1ccc(-c2nc(CN3C(=O)CN=C(c4ccccc4)c4ccccc43)c(C)o2)cc1`, the inhibition amounted to 5.4%.

For `CN(C)P1(N(C)C)=Nc2c(c(N)nn2C)C(c2ccccc2)=N1`, the inhibition is active: 31.5%.

Turning to `ON1C2CCCCC2N(O)C1c1ccccc1F` (stereo unspecified), the inhibition is active: 50%.

On to `CSc1ccc(CN2CCN(C(=O)COc3cccc(C)c3)CC2)cc1`, for which the inhibition is -14%.

As to `Cc1ccc(C2CN(C)CC2C(=O)c2ccc(F)cc2)cc1` (stereo unspecified), the inhibition is active: 70%.

With `Cc1cccc(-n2c(/C=C/c3c[nH]c4ccccc34)nc3ccccc3c2=O)c1`, the inhibition was 3.35%.

As to `C=CCN1CCc2cccc3c2[C@H]1Cc1ccc(O)c(O)c1-3`, the inhibition is active: 88.8%.

Regarding `COc1ccc(C(=O)N2CCCC2=O)cc1`, the inhibition was active: 39.8%.

Consider `Cc1cccc(Cn2cccc(C(=O)Nc3cc(C)on3)c2=O)c1`, for which the inhibition is -16.4%.

As to `COc1ccc(C(C)=O)cc1CN1CC=C(c2ccccc2)CC1`, the inhibition is active: 78.1%.

Turning to `O=[N+]([O-])c1ccc(N2CCNCC2)cc1NCc1ccco1`, the inhibition was active: 61.3%.

For the compound `NCC(O)c1cc(O)c(O)cc1F` (stereo unspecified), the inhibition is active: 81.2%.

Consider `Cc1cc(C)cc(N2C(=O)NC(=O)/C(=C\c3cccn3-c3ccc(Cl)cc3)C2=O)c1`, for which the inhibition is active: 37.8%.

For the compound `CN(C)C1(CNC(=O)Nc2ccc(Cl)c(Cl)c2)CCCCC1`, the inhibition is active: 54.3%.

`CC(C)[C@@]1(NC(=O)[C@@H]2C[C@@H]3c4cccc5[nH]cc(c45)C[C@H]3N(C)C2)O[C@@]2(O)[C@@H]3CCCN3C(=O)[C@H](Cc3ccccc3)N2C1=O`: the inhibition was active: 101%.

Usually inhibition stands for the change of the read-out against control, counted positive when it falls.
